The full ranking holds about 33,000 sequences; the median of “E-score (-0.5 to 0.5)” is about -0.054, and the highest 2% start at about 0.39. The list shows a part of the results.
biological target: Ylr278c (UniProt Q05854); test: PBM E-score (8-mer binding enrichment) (E-score (-0.5 to 0.5)); higher = stronger / more preferred TF binding; most listed sequences are background and not binding sites; conditions: protein concentration: 200 nM; construct: GST-DNA-binding domain
Outline: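 E-scores (a modified Wilcoxon-Mann-Whitney statistic) were assigned by the Universal PBM Analysis Suite to every ungapped eight-base word pooled with its reverse complement. The input came from universal all-10-mer Agilent arrays made double-stranded by primer extension and probed with GST-tagged yeast transcription factors at about 100-200 nM. Fluorescent anti-GST detected bound protein, and masliner normalised the scans.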

Point of comparison: ACTTTACG, “PBM E-score” value -0.0903. Against it:
- AAAGAGGT — higher, -0.0839
- ACCACTAT — lower, -0.241
- AAGGGATT — lower, -0.281
- ACTGAGGA — lower, -0.0929
- ACCCAGCG — lower, -0.125
- AGCAGATA — higher, -0.0688
- CTTGCATA — lower, -0.224
- ATTTTGAA — higher, 0.0175
- GACTCAAC — higher, -0.0872
- ATTTACGG — higher, 0.322
- GATACAAC — higher, 0.0807
- TGCATGAA — higher, -0.0338
- CCACTAAC — lower, -0.293
- CACCGTCG — higher, 0.205
- GATAGAGC — higher, -0.0555
- AAAGTTCA — higher, 0.0477
- TGCCAAAA — lower, -0.0916
- CGTGGGAA — lower, -0.272
- GTATTAAC — higher, -0.0125
- ACCTTGCT — higher, -0.0598
- ATATGGAT — lower, -0.177
- TAGCGGAA — higher, 0.314
- ATCCACTG — lower, -0.108
- ACAGCTAG — lower, -0.118
- CGGCACGC — higher, 0.197
- GGGGATCA — higher, -0.0408
- CAAAGCAC — lower, -0.189
- CTGTCTTC — lower, -0.188
- ACTTCGGG — higher, 0.212
- AAAGTCCC — higher, 0.173
- ACACAGGG — lower, -0.0918
- GGGCTTGA — lower, -0.142
- CCAATTGC — lower, -0.12
- TGCTGTAA — lower, -0.18
- AACCTGAA — lower, -0.222
- CATGGCAA — lower, -0.124
- GCCGAACA — higher, 0.21
- TTCAACAA — lower, -0.162
- CCAACTAG — lower, -0.217
- AAATTATT — higher, 0.12
- CCCGAATA — higher, 0.263
- AAGTAGAC — higher, -0.011
- GACGAATA — higher, 0.0954
- CGTACAGA — lower, -0.26
- ATCTTCAA — lower, -0.196
- AATATGAG — lower, -0.168
- AAGGAATG — higher, -0.0329
- ACACGCTC — higher, 0.0439
- GGGGCGCA — higher, -0.0178
- ATCTAGCC — higher, -0.0261
- ACATTGAA — higher, -0.0415
- CAGACTCG — lower, -0.159
- ACCTCAGC — higher, -0.0674
- CTTGCCGA — higher, -0.0329
- ATTAGCTC — higher, -0.0566
- CCGCACCG — higher, 0.29
- ATAACCTA — lower, -0.148
- AGGGCATG — lower, -0.113
- AGCCTACA — lower, -0.0936
- ACCGTGAA — higher, 0.121
- GGGCCTGA — lower, -0.161
- CACTCGCC — higher, 0.0774
- CAACAGCC — higher, -0.0545
- CCGGTACA — higher, 0.322
- CACGAAGA — lower, -0.155
- ATGTCATC — lower, -0.143
- ACAGGTGC — higher, -0.0681
- AGTGCCAG — lower, -0.158
- ACGTAGTA — higher, 0.0575
- ACGGGCGA — higher, 0.172
- ACTGATGG — lower, -0.167
- CTAAGGAC — higher, -0.0811
- TTAAGTAA — higher, 0.115
- ATTTATGC — higher, 0.0796
- GACAAAAC — higher, 0.0574
- ACGCTTAG — lower, -0.119
- AGACTACA — lower, -0.199
- AATCGTCT — lower, -0.194
- CAGGTTCG — higher, 0.133
- AGTGTATG — higher, -0.0273
- AGGCGTCA — lower, -0.293
- AAGCATTC — higher, -0.0721
- ATTCCGAG — higher, 0.445
- CGGGGACC — higher, 0.216
- CGGAGGCC — higher, 0.42
- CACTGGCA — lower, -0.134
- CCAGCTCG — lower, -0.106
- TCATACAA — higher, -0.0307
- ATATTCTG — higher, 0.0833
- CTATTGAA — higher, -0.0865
- AATACGTC — higher, 0.139
- CTTACGCA — lower, -0.202
- CTAAGGTA — higher, 0.0138
- ACTTGTCC — higher, 0.241
- ATTAGCGA — higher, 0.0162
- ATTACATC — higher, 0.00427
- AGATAAGG — lower, -0.18
- AGGTATAT — lower, -0.194
- ACAAGCCT — lower, -0.309
- TAGTGACA — lower, -0.157
- GGTAGCTA — lower, -0.2
- GTCTGCAA — higher, -0.0552
- AGGGGATC — higher, -0.0127
- ATTGTCAG — lower, -0.127
- AGCGACCC — higher, -0.00942
- GAGAGACA — lower, -0.092
- CGTAATCC — higher, 0.311
- ACTGTACC — higher, 0.0291

Reference: the supplement of paper PMC3334620
